The record followed here is ChEMBL document CHEMBL4888484, “Replenishing the malaria drug discovery pipeline: Screening and hit evaluation of the MMV Hit Generation Library 1 (HGL1) against asexual blood stage Plasmodium falciparum ,using a nano luciferase reporter read-out” (2022).

Screen size: about 150,000 compounds; about 540 (0.36%) showed an effect of 50% or more. Some of the results follow.

The assay relates to Plasmodium falciparum. Put plainly: Primary screen in NF54 nanoGlo assay, in single point, at 2uM, 72h; a lower Z score goes with more inhibition. Format: functional, Erythrocyte. As to conditions: timepoint 72 hour.
Broadly, the % Inhibition is the drop in the measured response relative to a control, in per cent. In the case of `COCCNc1nc2c(c(N(C)CCc3ccccn3)n1)CCNCC2`, the “% Inhibition” value was -4% and the Z score is 0.73.

For the compound `O=C(C1CCCCC1)N1CC[C@@]2(CO)CN(Cc3ccccc3)C[C@H]2C1`, the “% Inhibition” value is recorded as -20% and the Z score is given as 2.37.

In the case of `Cc1ccc(CNC(=O)c2cnc(-c3ccccc3)nc2-c2ccncc2)cc1C`, the “% Inhibition” value was -1% and the Z score is given as 0.08.

For `O=C(c1cccc2[nH]ccc12)N1CC(Oc2ccccc2-c2nc(-c3cnccn3)no2)C1`, the “% Inhibition” value is recorded as -14% and the Z score was determined as 1.55.

As for `Cc1nsc(NC(=O)N2CCC([C@@H](O)CCc3ccccc3)CC2)n1`, the “% Inhibition” value is given as 0% and the Z score came out at 0.05.

As for `CC[C@@H](CO)N(Cc1cccnc1)C(=O)c1ncccc1C(=O)c1ccccc1`, the “% Inhibition” value is -7% and the Z score is 0.92.

As to `COc1ccc(C(=O)N2C[C@H]3CC(=O)NCCN(C)C(=O)c4cccn(c4=O)Cc4cn(nn4)[C@H]3C2)cc1`, the “% Inhibition” value is listed as -9% and the Z score stood at 1.62.

`CCn1ncnc1-c1ccc(C(=O)N[C@@H]2COC(C)(C)C2)cc1`: the “% Inhibition” value amounted to 2% and the Z score is -0.25.

On to `CCc1cc(C(=O)Nc2cc(Cl)ccc2OC)nc2ccnn12`, for which the “% Inhibition” value is -6% and the Z score was determined as 0.91.

Take `O=C(Nc1nc(-c2cccc3ccccc23)cs1)c1ccc[n+]([O-])c1`: the “% Inhibition” value is -3% and the Z score amounted to 0.38.

With `OCC1CCN(c2ccc(-c3nc(-c4cccc(C(F)(F)F)c4)no3)cn2)CC1`, the “% Inhibition” value is recorded as -7% and the Z score amounted to 0.97.

Turning to `CC(C)CC(C)OCCC(=O)NC1CCN2CCCCC12` (configuration not stated), the “% Inhibition” value is reported as 31% and the Z score is recorded as -3.5.

Turning to `Cc1nc(N2CCOCC2)[nH]c(=O)c1CCC(=O)N1CCC[C@H]1C(=O)Nc1nccs1`, the “% Inhibition” value was determined as 4% and the Z score was -0.41.

Take `Cc1nnc(N2CCC(C(=O)N[C@@H](C)c3ccccc3)CC2)c2nn(-c3ccccc3)c(C)c12`: the “% Inhibition” value is reported as 11% and the Z score was -1.33.

In the case of `CN(CC(F)F)C(=O)NCc1cc(F)ccc1Br`, the “% Inhibition” value is reported as -9% and the Z score is given as 1.21.

For the compound `Cn1c(NC(=O)c2ccc(OCc3ccccc3)nc2)nc2c(C#N)cccc21`, the “% Inhibition” value is -11% and the Z score is on record as 1.9.

For `COc1ccccc1CN1C(=O)N[C@@H](CC(=O)N2CCc3cc(OC)c(OC)cc3C2)C1=O`, the “% Inhibition” value was found to be 5% and the Z score was -0.96.

On to `CN(c1ccc2c(c1)OCO2)S(=O)(=O)c1ccsc1-c1nc(-c2cccc(Cl)c2)no1`, for which the “% Inhibition” value was -10% and the Z score came out at 1.41.

`CCN(C(=O)c1csnc1C)[C@@H](C)Cc1ccc(OC)cc1`: the “% Inhibition” value was found to be 3% and the Z score was -0.34.

`C[C@H]1CCc2nn3ccn(CC(=O)Nc4ccccc4)c(=O)c3c2C1`: the “% Inhibition” value is on record as -10% and the Z score turned out to be 1.59.

As to `CC(=O)N[C@H]1CO[C@H]2[C@@H]1OC[C@@H]2n1nnnc1-c1ccc(N(C)C)cc1`, the “% Inhibition” value was -5% and the Z score is recorded as 0.7.

For `CC[C@@H](CO)NC(=O)C1CC12CCc1cc(Br)ccc12` (some centres not stated), the “% Inhibition” value is reported as -13% and the Z score is 2.03.

With `Cc1nc(N2CCC[C@H](CNC(=O)c3cncn3C)C2)sc1C`, the “% Inhibition” value is on record as -6% and the Z score was 0.66.

With `Cn1ccc2cc([C@@H](O)CNC(=O)CC(C)(C)C)ccc21`, the “% Inhibition” value is -12% and the Z score is 1.48.

On to `Cc1oc(-c2cc(C(F)(F)F)[nH]n2)cc1S(=O)(=O)N1CCN(C)C(=O)[C@@H]1C`, for which the “% Inhibition” value was -10% and the Z score stood at 1.35.

Consider `CCOC(=O)C1CCN(C(=O)c2coc(CN(Cc3ccccc3)Cc3ccc(C(F)(F)F)cc3)n2)CC1`, for which the “% Inhibition” value is listed as -25% and the Z score is 2.24.

With `O=C1C[C@H](C(=O)O)C2(CCN(CC3CC3)CC2)N1`, the “% Inhibition” value was 15% and the Z score is -1.95.

In the case of `Cc1cc2c(c(-c3ccc(C(=O)NCC(C)C)o3)c1)O[C@@H](CN)C2`, the “% Inhibition” value came out at 3% and the Z score is -0.51.

`CCN1CC[C@H](c2nc(-c3ccncc3)nn2C(C)C)C1`: the “% Inhibition” value is -10% and the Z score was determined as 1.8.

`Cn1cc(-c2nnc(O)c3ccccc23)cn1`: the “% Inhibition” value was -16% and the Z score was 2.31.

Turning to `Cc1nn(-c2ccc(F)cc2)c2c1[C@@H](c1ccc(OCC(N)=O)cc1)CC(=O)N2`, the “% Inhibition” value was -4% and the Z score is on record as 0.53.

For the compound `CN(Cc1ccccc1F)C(=O)c1cc(S(=O)(=O)N2CCOCC2)ccc1N1CCCC1`, the “% Inhibition” value came out at 3% and the Z score is on record as -0.52.

With `COCCN(CC1CN(CC(C)O)CCO1)C(=O)c1ccccc1` (configuration not stated), the “% Inhibition” value is recorded as -10% and the Z score is recorded as 1.49.

As to `Cc1nc[nH]c1CN1C[C@H]2CC[C@@H](C1)N(C(=O)c1scnc1C)C2`, the “% Inhibition” value is on record as -1% and the Z score is given as 0.13.

Take `c1ccc(-c2noc(CCCN[C@H]3CCc4ncnn4C3)n2)cc1`: the “% Inhibition” value is reported as -2% and the Z score stood at 0.32.

As for `COc1ccc(CN2CCCN(c3ccc(NC(=O)NCc4ccccc4)cc3)C2=O)cc1`, the “% Inhibition” value is on record as -1% and the Z score is listed as 0.21.

In the case of `COc1ccc(S(=O)(=O)N(C)c2ccc3sc(C(=O)N4CCCCCC4)cc3c2)cc1`, the “% Inhibition” value is listed as -15% and the Z score came to 2.15.

Regarding `Cn1ccc(CNc2ccccc2C(F)(F)F)n1`, the “% Inhibition” value is 30% and the Z score is on record as -3.39.

As to `CC[C@H]1CN(C(=O)c2cc(O)nc3ccccc23)CCO1`, the “% Inhibition” value was -3% and the Z score was found to be 0.57.

For the compound `COc1ccc(CN(Cc2ccco2)C(=O)Nc2cccc(F)c2)cc1OS(=O)(=O)c1cccc(C(F)(F)F)c1`, the “% Inhibition” value worked out at 2% and the Z score is -0.33.

For the compound `Cc1ccc2c(CNCCCc3ccccc3)c(C(=O)O)[nH]c2c1`, the “% Inhibition” value is -11% and the Z score came out at 1.06.
